Assay results as given in PubChem BioAssay AID1030 (National Center for Advancing Translational Sciences (NCATS), 2008).
Screen size: about 220,000 compounds; about 16,000 (7.3%) were called active. The inconclusive results got no clear call from the source; some entries with a clear call stand among them for comparison. The call rests on the fitted dose curve; in most records, active means well fitted inhibition curve with a large enough effect (not every such curve was filed as active); inconclusive means small, poorly fitted or top-dose-only effect, or another doubt; inactive means no such curve, though single readings can be large or run the other way. Where the call is inconclusive, the potency comes from a doubtful curve fit.

The molecules below were run against Aldehyde dehydrogenase 1A1 (Homo sapiens) (UniProt P00352) (assay: qHTS Assay for Inhibitors of Aldehyde Dehydrogenase 1 (ALDH1A1)). Details: Purified ALDH1A1, NADH fluorescence, propionaldehyde substrate; series mostly up to 75.3 µM.
Potency means the concentration at half of the fitted maximal effect; tags describe the fitted curve by direction and shape.
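Wherever activity, negative = inhibition is given: plate controls were no enzyme wells and a reference inhibitor.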

Chain of UniProt P00352 (P00352 whole entry, looked up): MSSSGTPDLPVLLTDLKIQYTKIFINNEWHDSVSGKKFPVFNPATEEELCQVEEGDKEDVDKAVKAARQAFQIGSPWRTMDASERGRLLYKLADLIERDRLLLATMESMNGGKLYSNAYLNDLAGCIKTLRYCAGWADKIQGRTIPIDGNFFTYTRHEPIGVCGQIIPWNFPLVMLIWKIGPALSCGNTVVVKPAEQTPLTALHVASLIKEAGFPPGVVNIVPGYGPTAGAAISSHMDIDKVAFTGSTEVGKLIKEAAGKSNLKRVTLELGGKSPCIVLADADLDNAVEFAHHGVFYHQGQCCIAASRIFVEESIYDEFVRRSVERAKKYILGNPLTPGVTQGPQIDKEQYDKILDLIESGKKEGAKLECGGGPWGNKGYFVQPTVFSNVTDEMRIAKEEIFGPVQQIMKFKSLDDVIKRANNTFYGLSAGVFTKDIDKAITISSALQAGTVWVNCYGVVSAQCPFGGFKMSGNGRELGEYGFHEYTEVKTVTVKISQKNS

Potency, active:
CCn1c(SCC(=O)N/N=C/C=C/c2ccccc2[N+](=O)[O-])nnc1-c1ccccc1 7.94 µM, CCCc1nc(SCC(=O)N2CCC(Cc3ccccc3)CC2)c2c(=O)n(C)c(=O)n(C)c2n1 17.8 µM, Cc1ccc(Cn2c(SCC(C)C)nc3c2c(=O)n(C)c(=O)n3C)cc1 2 µM, O=C(CSc1nnnn1C1CCCCC1)Nc1nc2c(s1)CCCC2 7.94 µM, O=C(CCl)NC(Cc1ccccc1)c1ccccc1 (configuration not stated) 1.41 µM, COc1ccc(Cc2nn3c(-c4ccccc4OC)nnc3s2)cc1 11.2 µM, CCCOc1ccc(C(=O)CCN2CCCCC2)cc1 0.0562 µM, O=C(/C=C/c1ccco1)N1CCN(S(=O)(=O)c2cccs2)CC1 7.08 µM, O=[N+]([O-])/C(N=Nc1ccccc1)=N\Nc1ccccc1 14.1 µM

Potency, inconclusive:
COc1ccc(C2C(C#N)=C(C)NC3=C2C(=O)c2ccccc23)cc1 (configuration not stated) 31.6 µM [inhibitor, single point], N#C/C(=C(/O)CN1CCOCC1)c1nc2ccccc2s1 35.5 µM [inhibitor, single point], CN1CCN(C(=O)NC2CCCCC2)CC1 39.8 µM [inhibitor, single point], COc1ccc(C2CC(=O)Oc3ccc(O)cc32)cc1 (configuration not stated) 70.8 µM [inhibitor, single point], CCOc1ccc(C(=O)NCC(=O)OCC(=O)Nc2ccc(C)c(S(=O)(=O)N(C)C)c2)cc1 39.8 µM [inhibitor, single point], CC(C)N1CCc2c(sc(NC(=O)c3cc4cc([N+](=O)[O-])ccc4s3)c2C(N)=O)C1 35.5 µM [inhibitor, single point], COc1ccc2nc(Nc3nc4ccc(NC(C)=O)cc4s3)sc2c1 31.6 µM [inhibitor, partial curve], Cc1ccn2c(NCc3ccccc3)c(-c3cccs3)nc2c1 22.4 µM [inhibitor, single point], CCSc1cc(N2CC(C)OC(C)C2)nc(-c2ccccc2Cl)n1 (configuration not stated) 3.55 µM [inhibitor, full curve], Cc1cccc2sc(NNC(=O)c3ccc(S(=O)(=O)N4CCc5ccccc5C4)cc3)nc12 25.1 µM [inhibitor, single point], Cc1cc(=O)n(C)c(=O)n1CCCNc1ccccc1 31.6 µM [inhibitor, partial curve, poor fit], COc1ccc(CNc2ncncc2-c2ccc3c(c2)OCO3)c(OC)c1 39.8 µM [inhibitor, single point], COc1cccc(Cn2c(=O)c(CCc3ccccc3)nc3cnc(N4CCNCC4)nc32)c1 25.1 µM [inhibitor, single point], CC(/C=N/NC(=O)CSc1nnc(SCc2ccccc2)s1)=C\c1ccco1 25.1 µM [inhibitor, single point], S=c1[nH]nc(-c2ccccc2)o1 35.5 µM [inhibitor, single point], CCCCn1c(N2CCC(Cc3ccccc3)CC2)nc2c1c(=O)[nH]c(=O)n2C 31.6 µM [inhibitor, single point], O=C(COc1ccc(/C=N/NC(=O)C(=O)N2CCCCC2)cc1)Nc1ccccc1Cl 31.6 µM [inhibitor, single point], Cc1cc(C)nc(NS(=O)(=O)c2ccc(NC(=O)CN3C(=O)S/C(=C\c4ccccc4)C3=O)cc2)n1 25.1 µM [inhibitor, single point], CCC(=O)N1N=C(c2ccc(NS(C)(=O)=O)cc2)CC1c1ccc(C)cc1 (configuration not stated) 28.2 µM [inhibitor, partial curve], COCCNC(=S)Nc1cc(OC)c(OC)cc1C#N 39.8 µM [inhibitor, single point], CCc1ccc(CN(C)C(=O)CCc2nnc(-c3ccc(-c4ccccc4)cc3)o2)nc1 35.5 µM [inhibitor, single point], CCCOC(=O)c1cc2ccccc2oc1=O 37.7 µM [inhibitor, single point], Clc1cccc(Cl)c1/C=C/c1nc2ccccc2[nH]1 31.6 µM [inhibitor, partial curve], CCOC(=O)c1sc2nc(C)c3c(c2c1N)CC(C)(C)OC3 35.5 µM [inhibitor, partial curve], CCOc1ccc(OCc2ccc(C(=O)N/N=C(\C)c3ccccn3)cc2)cc1 39.8 µM [inhibitor, single point], CCCc1nc(SCc2cccnc2)c2c(=O)n(C)c(=O)n(C)c2n1 11.2 µM [inhibitor, partial curve], COc1cccc(C2CC(c3cccs3)=NN2C(=O)CSC2=NN3CCCC(=O)N=C3S2)c1OC (configuration not stated) 39.8 µM [inhibitor, single point], CC(=O)Nc1ccc(-c2nnc(SCC(=O)c3ccc4c(c3)Cc3ccccc3-4)n2C)cc1 39.8 µM [inhibitor, single point], COc1ccc(Cn2nnnc2CN2CCc3ccccc32)cc1 39.8 µM [inhibitor, single point], Cc1ccc2nc(-c3ccc4c(c3)OCCO4)cc(C(=O)O)c2c1 39.8 µM [inhibitor, single point], CCn1c(C(=O)N2CCC(C(=O)N3CCN(c4ccccn4)CC3)CC2)cc2sccc21 22.4 µM [inhibitor, partial curve], Cc1ccc(NC(=O)NNC(=O)c2snnc2C)cc1 25.1 µM [inhibitor, single point], CC(CNC(=S)Nc1cc(F)cc(F)c1)CSc1ccc(Cl)cc1 (configuration not stated) 39.8 µM [inhibitor, single point], COc1ccc(Cl)cc1-c1ccc(C(=O)O)s1 31.6 µM [inhibitor, partial curve], CC(C)OCCCn1c(=S)[nH]c2ncccc2c1=O 31.6 µM [inhibitor, single point], CC(C)CC1C(C#N)=C(N)OC2=C1C(=O)CC(c1ccccc1)C2 (configuration not stated) 39.8 µM [inhibitor, single point], COc1ccccc1Nc1nc(N)nc(CN2CCN(Cc3ccccc3)CC2)n1 31.6 µM [inhibitor, single point], Cc1cccc(C(=O)NC(=S)Nc2ccc(S(=O)(=O)N3CCN(C)CC3)cc2)c1 39.8 µM [inhibitor, single point], COc1cc(/C=N/NS(=O)(=O)c2ccc(C)cc2)ccc1OCc1ccc(C(=O)O)cc1 39.8 µM [inhibitor, single point], C=CCn1c(SCC#N)nc2ccccc2c1=O 11.2 µM [inhibitor, partial curve], CCOC(=O)c1ccccc1NC(=O)/C=C/c1cc(OC)c(OC)c(OC)c1 35.5 µM [inhibitor, single point], COc1ccc(Cl)cc1NC(=O)C1CCCO1 (configuration not stated) 35.5 µM [inhibitor, single point], CCOC(=O)N1CCC(N(CCN(C)C)C(=S)Nc2ccc(F)c(Cl)c2)CC1 44.7 µM [inhibitor, single point]

Potency, inactive:
C=CCNC(=S)N1CCN(CCN=CC2=C(O)CC(c3ccc(Cl)cc3)CC2=O)CC1 (configuration not stated), O=C(c1ccc(Cl)cc1)N1N=C(c2ccccn2)CC1(O)C(F)(F)F (configuration not stated), CC(NC(N)=O)C(=O)Nc1ccc(Cl)c(S(=O)(=O)Nc2ccc(Br)cc2)c1 (configuration not stated), O=c1/c(=C/c2ccccn2)sc2nc3ccccc3n12, COc1ccc(CCNC(=O)c2sc(=S)n(C)c2N)cc1, S=c1nccc(-c2ccc(Cl)cc2)[nH]1, COc1ccc(N(C(=O)CNC(=O)c2cccs2)C(C(=O)NCC2CCCO2)c2ccc(OC)c(OC)c2)cc1 (configuration not stated), S=c1[nH]nc(COc2ccccc2)n1/N=C/c1cccnc1, COc1nccnc1NS(=O)(=O)c1ccc(NC(=O)c2cccc(C)c2)cc1, CNc1ccnc(-c2cccc(NS(C)(=O)=O)c2)n1, NC(=O)COc1cccc2cccnc12, Cc1ccc(S(=O)(=O)N/N=C/c2ccc(C(=O)O)cc2)cc1, Cc1ccc(C(c2c(C)[nH][nH]c2=O)c2c(C)[nH][nH]c2=O)cc1[N+](=O)[O-], O=C(O)c1ccccc1C(=O)Nc1nccs1, COc1ccc(Cn2c(SCC(=O)NCc3ccco3)nc3ccsc3c2=O)cc1, Cc1nc(NC(=O)c2ccccc2[N+](=O)[O-])sc1C(=O)N(C)C, COc1ccc(N=c2cc(-c3ccc(OC)cc3)oc3ccccc23)cc1, Cc1ccc(N2C(=O)C3CC(c4ccccc4)=C4C5C=CC(C6C(=O)N(c7ccc(C)cc7C)C(=O)C56)C4C3C2=O)c(C)c1 (configuration not stated), C=CCOc1nc2c(c(=O)n(C)c(=O)n2C)n1Cc1ccc(Cl)cc1Cl

activity, negative = inhibition, inactive:
C[N+](C)(C)CC(=O)N/N=C\c1c(O)ccc2ccccc12 11.4% [at 13.5 µM]
